Experimental data reported in the supplement of paper PMC3334620.
The full ranking holds about 33,000 sequences; the median of “E-score (-0.5 to 0.5)” is about -0.054, and the highest 2% start at about 0.39. This is one part of the list.

These sequences were tested against Ylr278c (UniProt Q05854) (assay: PBM E-score (8-mer binding enrichment) (E-score (-0.5 to 0.5)); higher = stronger / more preferred TF binding; most listed sequences are background and not binding sites). Conditions: protein concentration: 200 nM; construct: GST-DNA-binding domain.
Outline: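 Full-length yeast transcription factors or their DNA-binding domains, GST-tagged and expressed with PURExpress, were applied at about 100-200 nM to universal all-10-mer Agilent arrays. These arrays had been made double-stranded by primer extension on fresh or once-stripped slides. Detection used fluorescent anti-GST, normalisation used masliner, and E-scores for ungapped eight-base words pooled with reverse complements came from the Universal PBM Analysis Suite.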

Sequence	PBM E-score
CTTCTCGC	0.145
ACGAATCG	0.0123
CGGTTGCA	-0.0906
CGGAGCCG	0.427
GATACAGA	-0.0585
AGCGAACG	-0.128
ATTTCGCC	0.193
CGTTTCTA	-0.0853
ATCATGAG	-0.164
GATACCTA	-0.0272
CATGCCAG	-0.19
GTTCTCTA	-0.0525
CGCTTAGA	-0.192
GAAGGTGC	-0.0969
AAACCCTT	-0.042
GATATCTA	-0.268
CATCGCCA	0.0769
ACGATGTC	-0.0905
AGCGTTAT	-0.0958
CCAAGATA	-0.0962
AACTGGCC	0.0711
ACATTTAG	-0.304
TCGATCGA	0.112
AATCCTGG	-0.0892
GATAGGTA	0.00262

Sequence	PBM E-score
GCTCGCGA	0.0526
CGCCGTGC	0.208
AACCGATC	0.0411
GTCACATA	-0.0936
CATCTCAC	-0.145
CTCTCTCA	-0.176
CTCCGGCC	0.455
CACACACC	0.0916
AAGGATTG	-0.126
ACATCGTG	-0.117
AGCACCAA	-0.0764
CCATCCGC	0.1
AAGTTTGT	-0.0818
CGGATCAC	0.301
GCCTTACA	-0.196
AGACAGCC	-0.16
TATACGGA	0.235
CCCTTTAA	-0.0852
AAGTTCTC	0.0789
AGTAAGCG	-0.0246
CCACCGTC	0.0404
TATGCTAA	-0.135
AAGTACCG	0.218
CACGCCTG	-0.263
CTGAACGA	-0.255

Sequence	PBM E-score
ATGCCGTA	0.0761
CGCATTGC	0.0491
ATCGAAGA	0.0299
GCCCCCAC	-0.0702
CTCCTCTC	-0.259
TACAGCCA	-0.218
TTCCACAA	0.022
CGTAATAA	-0.14
ACGAGGAC	-0.0432
CGCACTAA	0.179
CGTATCGC	0.0729
CCTCAAGG	-0.229
TGGCGTAA	-0.219
CAAGGCAG	-0.138
AGGCGTGA	-0.279
ATGCAGGC	-0.132
CGATCCAC	-0.0458
AAAGAGGC	-0.239
ACTGACAC	-0.0424
AAGGGAAT	-0.149
ATTCCACC	0.232
GAGCCGAA	0.204
GATAAGCC	0.00744
CCGCTCCA	0.064
ACCCACCG	0.127

Sequence	PBM E-score
GTAATCAC	0.00979
AGCGCACA	-0.0352
CACGCGTG	0.115
CCGATCAG	0.272
TACCCAGA	-0.202
CGTAGTTA	-0.0635
ATCGGGAA	0.323
CCCCGTTC	0.129
AACCGTAC	-0.252
ACGTTAAT	0.00772
CACCGAAC	0.102
ATTCCTGG	-0.0751
GCGGCCAA	0.13
GAAGGGGA	-0.102
ATTACTAG	-0.0588
ACATGGGA	0.0284
GGCTTGTA	-0.309
CCCGTAAA	0.0929
AGGCTCCA	-0.133
CATATTAG	-0.1
GACCGGTC	0.397
GTATGTAA	-0.0676
GACCTTCC	0.0466
CACAATTA	-0.18
ACACGGAC	0.267

Sequence	PBM E-score
GTCGATTA	-0.157
TCACGTAA	-0.381
CGGCCAAA	0.195
ATTGTTAA	-0.134
CACCGCTA	0.0577
CTGTTAAG	-0.407
AACTGTGT	-0.0652
GCTTGACA	-0.0637
AGCAAGCA	-0.339
TCCATGAA	0.0602
CGAGCAAC	-0.00501
GGTTACCA	0.108
ACGGCCAT	-0.0475
GCCCCCGC	0.226
GACGCTGA	-0.214
GTAGCGGA	0.299
CGTCGGGA	0.254
CTGGTCGC	0.0109
ATTGGCAA	-0.204
ACGCGGAT	0.23
ATTTCCCG	0.355
TAGAGGAA	-0.211
ATCACGCA	-0.00752
AAAGCGCT	0.118
CCTGTTAA	-0.202

Sequence	PBM E-score
ATAGAACA	-0.142
AAAGGTCT	-0.0524
AGAGTGTA	-0.146
CGTCACTA	-0.0571
CCAATCAG	-0.274
AGCGGCAG	0.0977
CCGTGTTA	0.0823
ACCTTTAG	-0.0779
ACTAAGGC	0.00463
ATGTACTA	-0.13
ACTTCAGA	-0.0177
TAGCGCCA	-0.184
CAACTGAG	-0.0875
GACAACCA	-0.0469
CGGTCAAC	0.169
AGACGCCG	0.253
GAAGCCGA	0.264
TAGGGATA	-0.147
CGGCCCAC	0.129
GGCATCGA	-0.21
CCCTCCGC	0.259
AATACACA	-0.152
ATGTGGAA	-0.0383
GGAATAAC	0.29
CTGGTTAA	-0.0405

Sequence	PBM E-score
CCTCTTAG	0.0901
TAGTTTGA	-0.0722
CTCGTACA	-0.125
GCTGGGCC	-0.111
CGGGAATC	0.326
TATTCACA	0.0657
CACTCGCG	0.0756
ACCTATGG	-0.193
CTATCCCA	-0.197
GAGAAACC	0.0551
AGACGAGG	-0.0329
AGTAATTA	-0.0875
CCTCCTTA	-0.261
ACGTGTGA	-0.252
ATAACGCC	0.158
ACTGTTCG	-0.00079
ATCGCGTA	-0.0246
TAAACGTA	-0.186
AACTCTTC	-0.204
AACCGGTG	0.282
CGTGCGAC	-0.0105
TAGGACCA	-0.148
CATCCAAA	-0.208
GGTTCTCA	-0.0382
CACTTCGG	0.222

Sequence	PBM E-score
AGTGGCAG	-0.114
ATTATATG	-0.0955
CTCAATGA	-0.235
CCCCGTAG	0.0474
CCTCACGA	-0.28
TGCGAAAA	0.0627
TAACATTA	-0.134
AGCAAAGC	-0.0959
GTCCGGGA	0.38
ATAATTCC	0.27
ACCTACCC	0.0998
ATCTCACA	-0.236
CCAATATC	0.0845
GAAAAGTC	0.025
AAGAGAGG	-0.138
AAATGTTG	-0.264
TACATGGA	-0.0166
AGAATGCT	-0.17
CCAGCCAC	-0.127
ATTATTGA	-0.101
GAGCCTAC	0.0364
ATGAAACG	-0.00401
CCCCGTAA	0.131
AGTAGTTC	0.138
CAAGCGCC	0.147

Sequence	PBM E-score
CACAGGAC	-0.0538
AGGGTTGC	-0.258
ACTTTAGG	-0.201
AAATCGAT	-0.214
GTCGGGCA	0.0838
ACCTAGAG	-0.141
CCTCTCAG	-0.335
GACTCCGC	0.426
GGCGCTAA	0.0191
CTTTGCAA	0.079
ACCGGAAC	0.428
ACCCGTTG	-0.177
AGACGTTG	-0.155
ATATGATA	0.0821
TCAGAGCA	-0.282
GCACGGCA	0.0246
AAATTCCA	0.115
GGGAGGTA	-0.0269
ACAACAAC	-0.148
